Here are results for 67 sequences from the supplement of paper PMC10126150.

Values marked as one replicate rest on one cluster of the flow cell; about a third of the high ones do not repeat.
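Also: ATP exposure 15 min at 22 °C before imaging.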

This data set has as its system ATP. Description: switch fluorescence ratio, 500 uM ATP over buffer (Cy3 cluster intensity, sum of 5 cycles each) (fold (ratio)); higher = stronger signal-on switching upon ATP binding; sequences stand for … in TCGTCGGCAGCGTCAGATGTGTATAAGAGACAGTTTTTTTTTTTTTTTTTTTTTTTTT…TC. As to conditions: aptamer strand: ATP DNA aptamer (quencher-CACCTGGGGGAGTATTGCGGAGGAAGG + anchor), 100 nM annealed; ATP concentration: 500 uM; one replicate. In short, it runs like this:
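For every switch-domain sequence, the fluorescence ratio is the mean of per-cluster values, each being summed target-cycle Cy3 intensity over summed buffer-cycle Cy3 intensity. Clusters outside 100-1000 RFU were excluded. On a modified Illumina MiSeq flow-cell, the Cy3-labelled switching-strand clusters were annealed to 100 nM quencher-labelled ATP aptamer, imaged in selection buffer and then after 15 min with 500 uM ATP at 22 °C. Five such cycles were run, with NaOH stripping and re-annealing between them.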
Consider AGTCGGCAAC, for which the switch fluorescence ratio is 1.37.

On to AAGGTTCAAT, for which the switch fluorescence ratio was 1.02.

Take AAAAAGGAGC: the switch fluorescence ratio was 1.02.

For the sequence GGAGTAATG, the switch fluorescence ratio came out at 1.19.

On to TATCTGCGTA, for which the switch fluorescence ratio came out at 1.02.

For the sequence CAATCCGTTA, the switch fluorescence ratio was determined as 1.15.

With GGCGCCACG, the switch fluorescence ratio came to 0.967.

On to CCCCCTGTCC, for which the switch fluorescence ratio amounted to 1.55.

For CGAGGGACTT, the switch fluorescence ratio was found to be 1.03.

Consider TGGGGAACTA, for which the switch fluorescence ratio was 0.961.

On to GTCTTAATTC, for which the switch fluorescence ratio came out at 1.02.

As for CTCCTTGTCA, the switch fluorescence ratio worked out at 1.02.

Turning to TCGTCCTGAT, the switch fluorescence ratio is 0.969.

In the case of GGCATCATTG, the switch fluorescence ratio is 1.

Regarding CAATCTTAAA, the switch fluorescence ratio stood at 0.981.

With AGTTTGCCT, the switch fluorescence ratio worked out at 1.02.

TTAACTCACA: the switch fluorescence ratio was 1.21.

As for TAGGGTGCCC, the switch fluorescence ratio was found to be 0.968.

As for AAGATTTC, the switch fluorescence ratio is 0.992.

Take TGGAAACTTG: the switch fluorescence ratio was found to be 1.06.

With GGCAATCGTG, the switch fluorescence ratio worked out at 1.09.

For ATGGCGATTT, the switch fluorescence ratio is 0.972.

Regarding TCCTAGAAAA, the switch fluorescence ratio came out at 1.08.

As for TAGAATGAAA, the switch fluorescence ratio amounted to 1.01.

Turning to ATAAAAAGT, the switch fluorescence ratio is 1.01.

As to ATAGAAGGAC, the switch fluorescence ratio came to 0.993.

Turning to GGCACCTTTA, the switch fluorescence ratio worked out at 1.03.

On to GAGCGGTCTA, for which the switch fluorescence ratio is 0.956.

Regarding TCGTAGACAA, the switch fluorescence ratio is 1.33.

As for CAGTACATAA, the switch fluorescence ratio came to 1.04.

Regarding TAGTGCCAGC, the switch fluorescence ratio is 1.02.

AGGTCTCGAT: the switch fluorescence ratio turned out to be 0.968.

On to CTCTGGGTTA, for which the switch fluorescence ratio came out at 1.03.

Consider AGGGTTTAGA, for which the switch fluorescence ratio was 0.98.

With TTATACTCGT, the switch fluorescence ratio worked out at 0.985.

TGACACGTAG: the switch fluorescence ratio stood at 1.08.

Regarding AGCGAGGCTG, the switch fluorescence ratio came out at 0.992.

Consider AGAGTAGTGG, for which the switch fluorescence ratio amounted to 0.968.

As for TGTCAGAAAC, the switch fluorescence ratio came to 0.948.

Take CGATCTCTT: the switch fluorescence ratio came out at 0.99.

Regarding TCAAGTCTAT, the switch fluorescence ratio turned out to be 1.15.

CATAAAACGT: the switch fluorescence ratio was determined as 1.03.

As for AAACTAGTGG, the switch fluorescence ratio stood at 0.964.

For the sequence AGGGCGTGAG, the switch fluorescence ratio was 1.

On to TTGGCCATTT, for which the switch fluorescence ratio worked out at 1.04.

As to TCGACATCGC, the switch fluorescence ratio came out at 1.08.

In the case of GTTAATTTAT, the switch fluorescence ratio is 0.981.

Take AGGAGGATGC: the switch fluorescence ratio stood at 0.873.

With ACAAGACTAC, the switch fluorescence ratio turned out to be 1.16.

Take TTCGTGTGAC: the switch fluorescence ratio stood at 1.19.

Turning to CCAGCGGTTC, the switch fluorescence ratio amounted to 1.47.

As for TGGTCCAACA, the switch fluorescence ratio amounted to 0.929.

Consider TAAGCCGGAC, for which the switch fluorescence ratio worked out at 1.02.

As to TCAGTCTGAG, the switch fluorescence ratio came to 0.99.

On to TAACATGCCT, for which the switch fluorescence ratio was found to be 1.06.

Consider TCGCCTCAGC, for which the switch fluorescence ratio turned out to be 2.26.

Turning to TCCCGTGAAA, the switch fluorescence ratio was 1.03.

As for GCCGAAGCT, the switch fluorescence ratio was determined as 1.03.

Turning to CTGATAAGAG, the switch fluorescence ratio was determined as 0.955.

Regarding ATCCGAGACG, the switch fluorescence ratio is 1.03.

ATGAGAGGCA: the switch fluorescence ratio was 1.01.

Take CGCGCTGTCA: the switch fluorescence ratio was determined as 1.02.

On to CGACGGTTTC, for which the switch fluorescence ratio is 1.59.

Consider GATCTAGGAC, for which the switch fluorescence ratio worked out at 0.992.

As for CGTAGCTGGT, the switch fluorescence ratio came out at 1.06.

As for TGATGATCTT, the switch fluorescence ratio worked out at 1.

As for ATTCTGGCTG, the switch fluorescence ratio came out at 1.01.
